# This is one part of the list.
# Experiments:
# Experiment in all cases: glycan array binding signal (z-score within array); higher = stronger binding
# Settings in all cases: glycan notation: IUPAC condensed, linker removed
# [1] = target: Gal(b1-4)GlcNAc(b1-2)Man(a1-6)[Man(a1-3)]Man(b1-4)GlcNAc(b1-4)GlcNAc
# Procedure, shortened: (§1)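 Arrays were curated from the Consortium for Functional Glycomics database, 3228 in total, and kept only where the protein sequence was available. Binding is expressed as a within-array Z-score. This score was averaged across arrays of the same protein sequence at different concentrations or buffers and across linkers, and negative values can be read as non-binding.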
# [2] = target: Gal(b1-4)GlcNAc(b1-2)[Gal(b1-4)GlcNAc(b1-4)]Man(a1-3)[Gal(b1-4)GlcNAc(b1-2)Man(a1-6)]Man(b1-4)GlcNAc(b1-4)GlcNAc
# Procedure, shortened: as §1
# [3] = target: Gal(b1-4)GlcNAc(b1-2)[Gal(b1-4)GlcNAc(b1-4)]Man(a1-3)[Gal(b1-4)GlcNAc(b1-2)[Gal(b1-4)GlcNAc(b1-6)]Man(a1-6)]Man(b1-4)GlcNAc(b1-4)GlcNAc
# Procedure, shortened: as §1
# [4] = target: Gal(b1-4)GlcNAc(b1-2)[Gal(b1-4)GlcNAc(b1-4)]Man(a1-3)[GlcNAc(b1-4)][Gal(b1-4)GlcNAc(b1-2)Man(a1-6)]Man(b1-4)GlcNAc(b1-4)GlcNAc
# Procedure, shortened: as §1
# [5] = target: Gal(b1-4)GlcNAc(b1-2)[Gal(b1-4)GlcNAc(b1-4)]Man(a1-3)[GlcNAc(b1-4)][Gal(b1-4)GlcNAc(b1-2)[Gal(b1-4)GlcNAc(b1-6)]Man(a1-6)]Man(b1-4)GlcNAc(b1-4)GlcNAc
# Procedure, shortened: as §1
# [6] = target: Gal(b1-4)GlcNAc(b1-2)[Gal(b1-4)GlcNAc(b1-6)]Man(a1-6)[Gal(b1-4)GlcNAc(b1-2)Man(a1-3)]Man(b1-4)GlcNAc(b1-4)GlcNAc
# Procedure, shortened: as §1
# [7] = target: Gal(b1-4)GlcNAc(b1-2)[Gal(b1-4)GlcNAc(b1-6)]Man(a1-6)[Gal(b1-4)GlcNAc(b1-2)Man(a1-3)]Man(b1-4)GlcNAc(b1-4)[Fuc(a1-6)]GlcNAc
# Procedure, shortened: as §1
# [8] = target: Gal(b1-4)GlcNAc(b1-2)[Gal(b1-4)GlcNAc(b1-6)]Man(a1-6)[GlcNAc(b1-4)][Gal(b1-4)GlcNAc(b1-2)Man(a1-3)]Man(b1-4)GlcNAc(b1-4)GlcNAc
# Procedure, shortened: as §1
# [9] = target: Gal(b1-4)GlcNAc(b1-2)[Gal(b1-4)GlcNAc(b1-6)]Man(a1-6)[GlcNAc(b1-4)][Gal(b1-4)GlcNAc(b1-2)[Gal(b1-4)GlcNAc(b1-4)]Man(a1-3)]Man(b1-4)GlcNAc(b1-4)[Fuc(a1-6)]GlcNAc
# Procedure, shortened: as §1
# [10] = target: Gal(b1-4)GlcNAc(b1-3)Gal(b1-3)GalNAc
# Procedure, shortened: as §1
# [11] = target: Gal(b1-4)GlcNAc(b1-3)Gal(b1-3)GlcNAc
# Procedure, shortened: as §1
# [12] = target: Gal(b1-4)GlcNAc(b1-3)Gal(b1-4)Glc
# Procedure, shortened: as §1
# [13] = target: Gal(b1-4)GlcNAc(b1-3)Gal(b1-4)GlcNAc
# Procedure, shortened: as §1
# [14] = target: Gal(b1-4)GlcNAc(b1-3)Gal(b1-4)GlcNAc(b1-2)Man(a1-3)[Gal(b1-4)GlcNAc(b1-3)Gal(b1-4)GlcNAc(b1-2)Man(a1-6)]Man(b1-4)GlcNAc(b1-4)GlcNAc
# Procedure, shortened: as §1
# [15] = target: Gal(b1-4)GlcNAc(b1-3)Gal(b1-4)GlcNAc(b1-2)Man(a1-3)[Gal(b1-4)GlcNAc(b1-3)Gal(b1-4)GlcNAc(b1-2)Man(a1-6)]Man(b1-4)GlcNAc(b1-4)[Fuc(a1-6)]GlcNAc
# Procedure, shortened: as §1
# [16] = target: Gal(b1-4)GlcNAc(b1-3)Gal(b1-4)GlcNAc(b1-2)[Gal(b1-4)GlcNAc(b1-3)Gal(b1-4)GlcNAc(b1-6)]Man(a1-6)[Gal(b1-4)GlcNAc(b1-3)Gal(b1-4)GlcNAc(b1-2)Man(a1-3)]Man(b1-4)GlcNAc(b1-4)GlcNAc
# Procedure, shortened: as §1
# [17] = target: Gal(b1-4)GlcNAc(b1-3)Gal(b1-4)GlcNAc(b1-2)[Gal(b1-4)GlcNAc(b1-3)Gal(b1-4)GlcNAc(b1-6)]Man(a1-6)[Gal(b1-4)GlcNAc(b1-3)Gal(b1-4)GlcNAc(b1-2)Man(a1-3)]Man(b1-4)GlcNAc(b1-4)[Fuc(a1-6)]GlcNAc
# Procedure, shortened: as §1
# [18] = target: Gal(b1-4)GlcNAc(b1-3)Gal(b1-4)GlcNAc(b1-3)Gal(b1-4)GlcNAc
# Procedure, shortened: as §1
binder,measurement,setting,value
PX9937B-bvu-524-33-524 (Bacteroides vulgatus) (protein) GTAYWKNPDQFTAFNTGLHALLREKSYNFFLLGEPRADIYGDNPIGGEASQGMERLPFNTINKENVGISNYGDMYKIINQINQMIAKTTETTILTEATQNYYLGEAYGMRAYLYFHLLRSWGDVVLYLDYTEGQNLDLSNITKGVSPATEVMEQIKKDIQASENAFGSDYSFKLGRHFWSAAATQMLKGEAYLWSGRQMNGGNSDYTIAKNAFENVKKADVGLVTSSFKDIFSFENKKNKEMIFTIHNGKDEYEMWGGYYRMRLIPAQDKMVKIYCDENGNSFVGTPDAQLNGLTQLQVRREFYFKGFRNNDTRWTTSLKAVYKKDAQGVVSYFGPITYKFQGTMLEGGSTRSFLDDFPIYRYADCLLQLAMAKVLLGEDPTEEINAVRERAYGSKYFNEHKAEIAYPNDNDPEFYTDNKWMKPDNAGALEAILKERLREFMFEGKRWYDIRLLGWDYVHQYSSAEQSRLLWPIDAGTLTNNSALKQTPGYE,glycan array binding signal (z-score),[1],0.429
same,glycan array binding signal (z-score),[2],-0.111
same,glycan array binding signal (z-score),[3],-0.25
same,glycan array binding signal (z-score),[4],-0.238
same,glycan array binding signal (z-score),[5],-0.39
same,glycan array binding signal (z-score),[6],0.111
same,glycan array binding signal (z-score),[7],-0.295
same,glycan array binding signal (z-score),[8],-0.405
same,glycan array binding signal (z-score),[9],0.073
same,glycan array binding signal (z-score),[10],-0.08
same,glycan array binding signal (z-score),[11],-0.318
same,glycan array binding signal (z-score),[12],-0.24
same,glycan array binding signal (z-score),[13],-0.12
same,glycan array binding signal (z-score),[14],2.05
same,glycan array binding signal (z-score),[15],1.48
same,glycan array binding signal (z-score),[16],1.45
same,glycan array binding signal (z-score),[17],0.249
same,glycan array binding signal (z-score),[18],-0.248

# Reference: the supplement of paper PMC8728848
